Article PMC4336329 (PLoS ONE, 2015)
Hit rate of the full screen: of about 310,000 compounds, about 14,000 (4.5%) showed an effect of 50% or more. Effects have a minus sign here. The list shows a part of the results.

biological target: human ether-à-go-go-related gene (hERG) potassium channel (human, UniProt Q12809); assay: primary screen, population patch clamp on CHO cells stably expressing hERG
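Note: peak tail current of the secondary pulse compared with the same well before compound.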

Sequence of human ether-à-go-go-related gene (hERG) potassium channel (Q12809 whole entry, looked up): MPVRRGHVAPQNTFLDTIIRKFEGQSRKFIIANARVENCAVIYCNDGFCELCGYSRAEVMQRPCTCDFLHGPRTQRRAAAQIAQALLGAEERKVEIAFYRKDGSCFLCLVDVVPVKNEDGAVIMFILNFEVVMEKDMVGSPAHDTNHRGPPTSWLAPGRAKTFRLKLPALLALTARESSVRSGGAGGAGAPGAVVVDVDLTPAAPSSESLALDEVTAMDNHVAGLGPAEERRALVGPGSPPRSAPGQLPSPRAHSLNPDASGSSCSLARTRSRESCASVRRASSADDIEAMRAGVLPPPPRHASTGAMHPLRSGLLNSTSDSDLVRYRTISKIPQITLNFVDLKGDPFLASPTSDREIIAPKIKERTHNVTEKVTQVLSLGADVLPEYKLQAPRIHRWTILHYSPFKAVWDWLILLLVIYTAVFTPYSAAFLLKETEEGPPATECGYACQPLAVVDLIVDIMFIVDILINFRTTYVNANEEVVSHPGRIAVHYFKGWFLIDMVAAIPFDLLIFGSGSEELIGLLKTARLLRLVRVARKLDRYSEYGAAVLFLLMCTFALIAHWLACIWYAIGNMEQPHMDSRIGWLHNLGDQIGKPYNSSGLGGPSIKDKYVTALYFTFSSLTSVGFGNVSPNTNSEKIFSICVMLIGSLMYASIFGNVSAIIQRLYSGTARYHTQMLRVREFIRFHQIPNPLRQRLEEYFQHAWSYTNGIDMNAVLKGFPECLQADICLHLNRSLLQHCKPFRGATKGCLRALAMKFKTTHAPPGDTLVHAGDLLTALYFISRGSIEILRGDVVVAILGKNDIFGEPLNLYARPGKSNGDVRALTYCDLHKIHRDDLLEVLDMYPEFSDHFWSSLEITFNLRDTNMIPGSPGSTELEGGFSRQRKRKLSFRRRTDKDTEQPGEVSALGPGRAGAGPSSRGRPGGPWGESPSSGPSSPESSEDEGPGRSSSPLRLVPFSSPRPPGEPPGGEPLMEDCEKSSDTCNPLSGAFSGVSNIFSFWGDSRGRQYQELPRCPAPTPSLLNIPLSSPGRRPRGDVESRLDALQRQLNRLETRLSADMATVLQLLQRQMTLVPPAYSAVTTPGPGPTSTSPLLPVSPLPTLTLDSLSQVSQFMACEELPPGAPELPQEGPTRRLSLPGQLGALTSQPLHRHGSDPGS

Row | Structure (SMILES) | hERG current change (%, negative = inhibition) at 10uM [%]
1 | CC1(C)CC(=O)C2=C(C1)N(CC1CCCO1)C(=O)C2(O)C(F)(F)F (stereo not drawn) | 1.53
2 | N#Cc1nc(COc2ccccc2)oc1N1CCCCC1 | -21.4
3 | NS(=O)(=O)c1ccc(CCNC(=O)CN2CCCCCC2)cc1 | 7.39
4 | O=C(c1cc2ccccc2oc1=O)N1CCN(S(=O)(=O)c2ccccc2)CC1 | -20.2
5 | COc1cc(C(=O)NCc2nnc(SCC(=O)N3CCc4ccccc43)o2)cc(OC)c1OC | -0.961
6 | C(=C/c1ccnc2nc(SC/C=C/c3ccccc3)nn12)/c1ccccc1 | -2.97
7 | Cc1cccc(OCCOC(=O)CN2C(=O)NC3(CCCC3)C2=O)c1 | 7.38
8 | O=C(Nc1cccnc1)NC1CCCCC1 | 19.1
9 | Cc1cc(C(=O)Nc2cc(S(C)(=O)=O)ccc2Cl)no1 | -22.2
10 | CCOC(=O)C1=C(NC(=S)NC(=O)c2ccccc2)c2ccccc2CC1C(C)C (stereo not drawn) | 17
11 | Cc1ccc(-c2nnc(SCCC(=O)N3CCOCC3)o2)cc1 | 19.4
12 | COc1cc(/C=N/NC(=O)c2ccc(=O)[nH]n2)ccc1O | -1.17
13 | Cc1noc(C(=O)Nc2ccc(Cl)cc2)c1Cl | 15.7
14 | CCOC(=O)NCCOC(=O)Nc1ccc(Cl)cc1 | -8.67
15 | CCOC(=O)c1ccc(-c2c(C(=O)OCC)oc3cc(O)c(CC)cc3c2=O)o1 | -1.47
16 | C=CCN=c1scc(-c2ccccc2)n1/N=C/c1ccccn1 | -0.821
17 | O=CN1CCN(S(=O)(=O)c2ccc(S(=O)(=O)NC3CCCCC3)cc2)CC1 | -4.61
18 | O=C(Nc1ccccc1)c1cccc(N2C(=O)C3C4CC(C(Br)C4Br)C3C2=O)c1 (stereo not drawn) | 15.7
19 | CCCCc1nc(NCCN2CCOCC2)c(C#N)c2c1COC(C)(C)C2 | -12.3
20 | O=C(COc1ccc(Cl)cc1)NC1CCSC1=O (stereo not drawn) | -16.8
21 | Cc1ccc(NC(=O)CN(c2ccc(Cl)cc2)S(=O)(=O)c2cc([N+](=O)[O-])ccc2Cl)c(C)c1 | 12.6
22 | Cc1cc(/C=C(\C#N)C(=O)Nc2ccccc2)c(C)n1-c1ccc(C(=O)O)cc1 | -1.99
23 | CC(=O)NC1(c2cccc(F)c2)CCN(CC(=O)NC2CCCCC2)CC1 | 8.06

Row | Structure (SMILES) | hERG current change (%, negative = inhibition) at 10uM [%]
24 | COc1ccc(/C=C/C(=O)NNC(=O)c2ccncc2)c(OC)c1 | -2.26
25 | O=C(CSc1nnc2sc3ccccc3n12)NCc1ccco1 | 13.6
26 | N#CCC(=O)Nc1ncn(Cc2ccccc2Cl)n1 | 15.4
27 | Cc1cccc(C)c1Nc1nnc(SCC(=O)NCc2cccs2)s1 | -9.12
28 | COCCn1cnnc1SCC(=O)c1ccc(S(=O)(=O)N2CCCC2)cc1 | 5.59
29 | COc1cc2c3nnc(-c4ccc(F)cc4)c-3cn(Cc3ccccc3)c2cc1OC | -37.1
30 | CCn1c(Cl)c(C=O)s/c1=N\S(=O)(=O)c1ccccc1 | -5.66
31 | COC1c2ccccc2C(=O)N1Cc1ccc(F)cc1 (stereo not drawn) | 5.48
32 | NC(=O)C(c1ccccc1)C1CCCCC1 (stereo not drawn) | 0.152
33 | COc1cc(OC)cc(C(=O)OCc2cc3ccccc3[nH]c2=O)c1 | 1.97
34 | CC(=O)c1ccc(NC(=O)COC(=O)c2c3c(nc4ccccc24)/C(=C\c2cccs2)CCC3)cc1 | 7.62
35 | Cc1ccccc1CSc1nncn1N | 3.3
36 | CC(C)N(Cc1nc(-c2ccccc2)no1)C(=O)c1ccc([N+](=O)[O-])cc1 | -30.1
37 | CC(NCC1(N2CCOCC2)CCCCC1)C(=O)N1CCc2ccccc21.O=C(O)C(=O)O (stereo not drawn) | -5.73
38 | COc1ccccc1-n1c(C)cc(C=O)c1C | 8.5
39 | COc1cc(/C=C(\NC(=O)c2ccccc2)C(=O)NCC(=O)O)c([N+](=O)[O-])cc1OC | 13.1
40 | COC(=O)c1ccc(NC(=O)c2cc(Cl)ccc2OC)cc1 | 19.8
41 | Cc1c(NC(=O)c2cccnc2)c(=O)n(-c2ccccc2)n1C | 17.2
42 | Cc1ccc(-c2nc(Cl)nc3ccccc23)cc1 | 10.3
43 | COc1ccc(CNc2ccccc2)cc1Br | -40.2
44 | CCOc1ccc(-c2cc(C(=O)N/N=C/c3cccnc3)c3ccccc3n2)cc1 | 1.66
45 | O=C(NCCc1ccccc1)C(c1ccncc1)N(C(=O)c1csnn1)C1CC1 (stereo not drawn) | -7.72
46 | Cc1cccc(N(C(=O)c2nsc(Cl)c2Cl)C(C(=O)NC2CCCC2)c2ccc(O)cc2)c1 (stereo not drawn) | -2.24

Row | Structure (SMILES) | hERG current change (%, negative = inhibition) at 10uM [%]
47 | Oc1cc(-c2ccccc2)c2ccccc2c1 | 36
48 | C/C(=N\N=C(N)N)c1cccc(Cl)c1 | 0.717
49 | Cc1cccc(N2CC(C(=O)O)CC2=O)c1 (stereo not drawn) | -15.2
50 | O=C(CN1C(=O)NC2(CCCC2)C1=O)Nc1nc(-c2ccc(F)c(F)c2)cs1 | -3.57
51 | COc1ccc(-n2c(SCC(=O)Nc3cc(C(=O)O)ccc3C)nc3ccccc3c2=O)cc1Cl | 21.3
52 | CC(OC(=O)c1cccc(S(=O)(=O)N(C)C)c1)C(=O)NCc1ccc2c(c1)OCO2 (stereo not drawn) | -7.17
53 | Cc1c(-c2ccco2)[n+](=O)c2c(n1[O-])CCC2 | 3.22
54 | Cc1cc(NC(=O)CSCc2ccccc2C)no1 | 5.18
55 | O=C(CN1C(=O)C2CCCCC2C1=O)N1CCN(c2ccccc2)CC1 (stereo not drawn) | 17.9
56 | COc1ccc(-c2onc(C)c2-c2cnn(-c3ccccc3)c2)c(O)c1C | 8.33
57 | COc1ccc(CCNC(=O)CSc2nnnn2-c2ccccc2)cc1 | -8.8
58 | CN(CC(=O)Nc1cccc(F)c1)C(=O)c1ccc(N2CCCCCC2)c([N+](=O)[O-])c1 | 17.9
59 | CCc1cccc(C)c1NC(=O)C(c1ccc(O)cc1)N1CCC1=O (stereo not drawn) | 15
60 | CC(C)c1c(C(=O)N/N=C/c2ccc3c(c2)OCO3)nnn1-c1nonc1N | 9.69
61 | O=C(COc1ccc(S(=O)(=O)N2CCOCC2)cc1Cl)NCC1CCCO1 (stereo not drawn) | 4.46
62 | CC(CC(=O)N(C)C1CCCCC1)S(=O)(=O)c1ccc2c(c1)NC(=O)CO2 (stereo not drawn) | 14
63 | O=C(Nc1cccc(S(=O)(=O)NC2=NCCC2)c1)c1c(F)cccc1Cl | 0.454
64 | Cc1cc(C)cc(NCC(=O)Nc2c(C)cccc2C)c1 | 0.639
65 | Cc1cc(C)n(CC(=O)N2CCCC(N3CCN(c4ccc(F)cc4)CC3)C2)n1 (stereo not drawn) | -18.1
66 | O=c1[nH]c(-c2ccccc2)nnc1-c1ccccc1 | -5.79
67 | Cc1nn(-c2ccccc2)c(C)c1C(=O)OC/C(O)=C(\C#N)c1nc2ccccc2[nH]1 | -3.02
68 | Cc1ccc(OCCn2ncc3ccccc3c2=O)c(C)c1 | 1.23
69 | CNCC(O)CN1CCN(c2ccccc2OC)CC1.Cl (stereo not drawn) | 12.7

Row | Structure (SMILES) | hERG current change (%, negative = inhibition) at 10uM [%]
70 | COc1ccc(-n2ccnc2SCC(=O)NCc2ccccc2)c(OC)c1 | -3.19
71 | Cc1oc(-c2cccc(C(F)(F)F)c2)nc1CN1CCC[C@H]1CO | -35
72 | CC(Sc1ccccn1)C(=O)Nc1ccc2c(c1)OCO2 (stereo not drawn) | 11.8
73 | C[C@]12CC[C@@H](O)C[C@@H]1CC[C@@H]1[C@@H]2CC[C@]2(C)C(=O)CC[C@@H]12 | 5.99
74 | COc1cc2c(cc1OC)-c1cc(Nc3ccc(C)cc3)nc(=O)n1CC2 | -8.97
75 | COc1ccc(S(=O)(=O)N/N=C(/C)c2ccc(C)o2)cc1 | -3.77
76 | NNC(=O)CSc1ncc(-c2ccccc2)[nH]1 | 37.3
77 | O=C(O)c1c(F)c(F)cc2ccccc12 | -3.2
78 | COc1ccc(CN(C)C(c2ccccc2)c2nnnn2-c2ccccc2C)c(OC)c1C (stereo not drawn) | 17.6
79 | COc1ccc(CC(=O)Nc2ccccc2C(C)=O)cc1S(=O)(=O)N1CCOCC1 | -15.3
80 | CC(C)(O)C#Cc1ccc(C(=O)N2CCN(c3ccc(F)cc3)CC2)cc1 | -11.4
81 | COc1ccc(NC(=O)N2CCC(n3nnc4cc(C)ccc43)CC2)cc1 | -11.3
82 | CCCCN1C(=O)c2ccc(C(=O)NC3=NCCS3)cc2C1=O | 5.86
83 | O=C(NNC(=O)c1cccnc1)Nc1cccc(Cl)c1Cl | 15.8
84 | O=C(CN1CCN(c2cccc(C(F)(F)F)c2)CC1)N(C1CCCC1)C1CCS(=O)(=O)C1 (stereo not drawn) | -30.3
85 | CC(=O)OC1N=C(c2ccccc2)c2cc(Br)ccc2N(C)C1=O (stereo not drawn) | -19.2
86 | C=CCn1c(SCC(=O)N2CCOCC2)nc(O)cc1=O | 17.5
87 | O=C(C1CCN(c2nc(-c3ccccc3)nc3c2CCC3)CC1)N1CCCC1 | -35.8
88 | CC(C)C(NC(=O)CSc1ccc(Cl)cc1)C(C)C | 1.46
89 | C=CCn1c(CNS(=O)(=O)c2ccc(F)cc2)n[nH]c1=S | 16.9
90 | COCCNCc1ccccc1[N+](=O)[O-] | 1.14
